B1: OR4K15 (parent)
chain: GUUAACGGUCAUAGGCCAUGGAAACUAGGAGCACCAUUUCGCUGCCAGUGAAGAAAUGAACAAAGAAAAUCUGGGCCAGGCAGGCAUCAAAAGAAAUAGUCUUGCGCUCAACCAGAAAGUCUGUAAUCAUUUUAAGGGUA

Read counts are not given, so values of variants with three or more changes are uncertain.

The variants in this series derive from B1. Briefly: self-cleavage, relative activity (ratio to wild type); higher = more cleavage; in vitro, sequencing; the parent is a self-cleaving ribozyme.
G7A U49C A94U: the self-cleavage worked out at 1.32.
Take A5G U12C A23G A47U G48A A62G: the self-cleavage stood at 0.8.
The result for C6U A11G A52G U108C reads 0.15; that for A5G U37C G119A, 1.53.
With A5U A11C A68G A82U the figure was 0.31.
The result for G7U U43C A92U reads 0.32; that for U9A A47G A111G G115U, 0.01.
Take A5U U39C A98G U100C: the self-cleavage was 1.27.
For the variant A5G U9C A55G A86U, the self-cleavage amounted to 1.05.
For the variant C6U A54G A64G A92G A140G, the self-cleavage turned out to be 1.07.
The result for U9A A68G U108C reads 0.04.
For the variant G8U A22G A78U A94G A140G, the self-cleavage was 0.95.
The result for G7A U9C U12C U97C U139C reads 0.85; that for C6U A59G C101U, 0.5; that for G7A A52G A94U A126G, 1.27.
Take A5G U9C U100C A117G: the self-cleavage was 1.
A5G U49C A82G U120C A126G: the self-cleavage came out at 0.18.
As for A5G U43C A67G, the self-cleavage turned out to be 1.84.
The result for A5G U37C A63G U87A reads 0.68; that for A5G U39C U127A, 1.02.
Turning to A5G U43A G75A A118G U130A, the self-cleavage was determined as 0.13.
Take C6U U12A U49C: the self-cleavage was determined as 0.36.
The result for C6U A63G U70A reads 1.73; that for A5G U38A G136A, 1.31.
The result for A5G U39C U87C A118C G123A reads 0.46; that for A5G G83A U131C, 0.85; that for A5G U57A A92G A111U, 0.07.
The result for G7U U12C A30G A91G reads 0.62; that for A5G U43G U131C, 1.87.
For C6G A47U A111U, the self-cleavage is 0.11.
With U9A U12A A47U A51U A94U U131C the figure was 0.52; with A5G U38C U49C, 0.98; with A5G U37C A55G, 0.6.
Take U9A A67G A95G: the self-cleavage was 2.19.
On to U9A A22G U103C U108C, for which the self-cleavage was 0.03.
As to A5G U49C U133C, the self-cleavage came out at 1.24.
With G7U A55G A64G U103C U132C the figure was 1.17; with G7A A56G A60G U131C, 0.78; with C6G U49C A51G G74U U87C A117G, 0.12.
On to A5U A51G A66G U131C, for which the self-cleavage worked out at 1.17.
Consider G7A U38C A54C A89G U139C, for which the self-cleavage was 2.13.
The result for G8A A22G A62G U130G U132C reads 0.97; that for G7A A55G C77U, 1.55; that for C6A A13U A126G U131C, 0.52.
Consider G7A A22G A52G A89G U131C, for which the self-cleavage amounted to 0.69.
With A5G G75C A114G, the self-cleavage stood at 0.15.
Turning to A5G U9C U130C, the self-cleavage came to 0.51.
The result for G7A U43C U87C A140G reads 1.29; that for A5G C46U A59G U108C, 0.02; that for U9A U12C A95G, 0.96.
Regarding U9A A52G A82U A116G, the self-cleavage stood at 0.05.
The result for U9A A90U A129G reads 1.73.
As to C6A U19C A24G A59G A64G A82G, the self-cleavage was 0.37.
With C6U U37C U43C U100C U130C the figure was 1.9.
With A5G C85U A92G A129G the figure was 0.9.
For A5G G80A A86G A110G A111G, the self-cleavage was determined as 0.02.
Regarding G7A A95G U97C, the self-cleavage worked out at 1.02.
With A5G U19A U38C U43A U102A, the self-cleavage turned out to be 0.98.
With A5G U87A G123A the figure was 1.13.
On to G8A C76A A135G, for which the self-cleavage came to 0.1.
With U9A A52G C109U the figure was 0.45.
Consider A5G U37C A62G A86G U103C, for which the self-cleavage was 0.32.
For A5U A118U A134U, the self-cleavage turned out to be 0.44.
Take C6A A27G U39C A67U A78G A118G: the self-cleavage stood at 0.09.
With G7A U87C A116G the figure was 0.37; with C6U U12A A59G A67G A82G A90G A98G A117G, 0.19.
With A5G U57C A64G C105A the figure was 0.01; with A5U A33G A91G A94U U103A A126G U131C U139C, 0.02.
On to A5G U9C A22U U100C, for which the self-cleavage is 1.6.
The result for U9A A24G U70C A116U reads 0.36.
Take G7A A30G A60U A125G: the self-cleavage was 0.39.
The result for G8A A67G A78G G138U reads 0.33.
As for C6U A47G A52G A67G C113A A118G, the self-cleavage was 0.02.
With A5G U37C A69G A111G the figure was 0.08; with C6U A90G A94G U124C, 1.24; with C6U C16A A63U A95G, 1.33.
On to C6A A22G A94G A118G, for which the self-cleavage worked out at 0.45.
On to G7A U9A A60G A96G A111G A117U A118G, for which the self-cleavage worked out at 0.01.
As to G7U A24G A56G A67G A68G, the self-cleavage amounted to 0.55.
For the variant A5G U37C C42A A129G, the self-cleavage was determined as 0.61.
The result for A5U A64U A135U reads 1.36.
With A5G U19A A33C A114G the figure was 1.02.
As for C6U A18G A56G U132C, the self-cleavage worked out at 0.94.
G7U A91G A125G: the self-cleavage amounted to 0.56.
The result for A5G G58U A64U reads 0.76; that for A5U A22C A30G A116U C128U, 0.16.
A5G U19A U39G A59G: the self-cleavage was found to be 1.1.
Turning to U9A C81A U124C, the self-cleavage was determined as 0.19.
As to A5U U70A A111G, the self-cleavage turned out to be 0.05.
As to U9A A94G U103C, the self-cleavage came to 1.1.
On to A5U A68G A118G, for which the self-cleavage came to 0.76.
With G7U C77U U124C the figure was 0.86; with C6U A94G U127C, 0.66; with U9A A30G U37C A52G, 1.52.
For the variant G8A A52U A67G, the self-cleavage is 1.99.
The result for U9A A114C U122C reads 0.01; that for C6U A62U A140G, 0.78.
The result for A5G U39A U127C reads 1.16; that for U9A A69U A82G, 1.01; that for U9A A18G A54G, 1.48.
Take A5G U38C A52G A59G A129G: the self-cleavage is 0.84.
As to C6A A68G A126G, the self-cleavage came out at 0.95.
U9A C25U A78G: the self-cleavage was determined as 0.28.
As to A5G U57C U124C, the self-cleavage was 1.2.
For G7A U43C A60G A67G, the self-cleavage was found to be 1.15.
The result for G8A A13G C81U U131C reads 0.6; that for A5G U12G U43G A51G G80C, 0.05; that for A5U A18G U38A A86G A134G A135U, 1.09.
With C6U A22G A64G A69G U124A, the self-cleavage was 0.54.
The result for A5U A94G U103C A118G reads 0.41.
The result for A5U G7A U39A reads 1.1; that for A5G U26C A52U A56G A111G U124C U130C, 0; that for G7U A82U A98C U108C U122C, 0.01.
In the case of A5G U19C U57C C61U, the self-cleavage came to 0.79.
With G8A U39C U49C A60G A96U A117U the figure was 0.56.
As to G8U U26C U43C A63G U87A A95G U131C, the self-cleavage is 0.67.
With C6U A51G U102G U103C U132C the figure was 0.36; with U9A A60G U122C, 0.88.
In the case of G7U A95U U102C, the self-cleavage was found to be 2.41.
In the case of G7A A52G A60G, the self-cleavage amounted to 1.73.
On to A5U A51G A62G, for which the self-cleavage is 2.37.
With U9A C10G A51G A69G C85A A89U C113U the figure was 0; with A5G U9C U12C A22G U57C A116U A125U U132C, 0.22.
The result for A5U A24G A62U U103C A110G reads 0.38; that for U9A A78G U132C, 0.11.
In the case of A5G U57C A68G, the self-cleavage came to 0.96.
For the variant A5G U39A A67G A118G, the self-cleavage was 1.06.
With A5U A13U A27C U43C A59G the figure was 1.06.
The result for A5G U49C A54U A63G U103C reads 0.69; that for G7A U49C U122A, 0.75.
The result for G7U A11G U12C U43A A91G A116U U127C reads 0.24; that for U9A A60G A126G, 0.71.
C6U A24G A82U: the self-cleavage was determined as 0.46.
As for G7A A62G A92G, the self-cleavage was 1.52.
U9A A27U A68G A82G G106U A126G: the self-cleavage turned out to be 0.
As for A5G U122G U130C U132C, the self-cleavage was found to be 0.54.
On to G8A A22U G75A U103C, for which the self-cleavage is 0.15.
U9A A47U U100C A118C: the self-cleavage turned out to be 0.79.
The result for A5G U37C U57A reads 1.03; that for G8A A89U A96G, 1.55; that for U9A A68G U120C A126G, 0.57.
The result for G7A A66G U131C reads 1.01.
The result for A5U U130C A135U reads 1.69.
On to A5U U12A A24G A56G A64U A69G A90G, for which the self-cleavage stood at 1.7.
The result for G7U A33G U39A A94G reads 1.85; that for A5G G44A A92G A126G, 0.51; that for A5U A24G U102C, 1.8.
With U9A A13G U49C A95U the figure was 1.18; with A5G U39C U103C, 1.36.
With U9A A110G A116G the figure was 0.12; with U9A A22U A24C A60G A111G A114U, 0.01; with G8A A18G A89U A125U, 1.41.
On to G7U A51G A54G U87C A111G, for which the self-cleavage is 0.05.
As for G7A A54G U130C, the self-cleavage came to 0.69.
The result for C6U U39A U122C reads 0.8.
Consider A5G G20A G48A A60G A91G U108A, for which the self-cleavage was 0.01.
Turning to G8A U49C A55G U102C, the self-cleavage was 1.84.
With G7U C35U U72C U103C the figure was 0.03; with G8A A22G A67G A78G, 0.2; with A5U U37C U102C U103C, 0.35.
With C6U A33G U100C A118C A135U the figure was 0.67.
The result for A5G G31C U57C A66G reads 0.78; that for A5U A36C A52G U87C, 0.61.
With A5G U103C U122G U131C, the self-cleavage was determined as 1.12.
With U9A A63G G138A the figure was 1.54.
With A5U G44A A68G U87C the figure was 1.05; with A5U A47G G115U U122C, 0.06.

The values are drawn from the RNAGym collection of RNA variant scans (doi:10.7554/elife.90254).
